Hit rate of the full screen: of about 340,000 compounds, about 6,900 (2%) were called active. No stated cut-off is given here; in the data, active means inhibition above about 30%; inactive means below that, where a call was filed. The list shows a part of the results, in another mix than the full data. Where no call is shown, the source filed none.
Target: D(2) dopamine receptor (Homo sapiens) (UniProt P14416)
Assay: HTS Assay for Allosteric Antagonists of the Human D2 Dopamine Receptor: Primary Screen for Antagonists; further: 0% is about no effect
Conditions: HEK293 TREx D2 cells, calcium flux, dopamine EC80; at 10 µM; stronger effect = higher value
Method in brief: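 Compounds are added to dye-loaded, induced HEK293 T-REx cells coupled to calcium release via D2; after a 3 min kinetic read an EC80 dopamine stimulus is given and fluorescence is recorded for 3 more min.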

UniProt P14416, sequence (P14416 whole entry, looked up): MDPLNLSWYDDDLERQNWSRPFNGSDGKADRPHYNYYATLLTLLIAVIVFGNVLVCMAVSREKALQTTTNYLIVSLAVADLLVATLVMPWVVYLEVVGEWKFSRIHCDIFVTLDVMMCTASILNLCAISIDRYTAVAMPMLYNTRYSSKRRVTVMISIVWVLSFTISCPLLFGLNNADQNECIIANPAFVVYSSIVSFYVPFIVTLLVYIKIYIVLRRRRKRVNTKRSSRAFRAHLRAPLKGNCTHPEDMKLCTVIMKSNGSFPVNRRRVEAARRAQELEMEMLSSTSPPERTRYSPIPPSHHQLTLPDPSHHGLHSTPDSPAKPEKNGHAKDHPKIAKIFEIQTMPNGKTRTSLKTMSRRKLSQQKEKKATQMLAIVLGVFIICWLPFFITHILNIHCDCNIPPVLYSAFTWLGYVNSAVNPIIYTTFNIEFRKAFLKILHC

Structure (SMILES) | inhibition
COc1ccccc1N1CCN(c2nc3ccc(C)cc3n3nnnc23)CC1 | 0.194%
Cc1nn2c(=O)cc(COC(=O)c3cccc(NC(=O)c4ccc(C(C)(C)C)cc4)c3)nc2s1 | -8.49%
COc1ccc2oc(C(=O)OCC(=O)N3CCCCC3)c(C)c2c1 | active: 31.3%
COc1ccc(N=C2S/C(=C\c3ccco3)C(=O)N2CC(C)C)cc1 | active: 35.6%
O=C(COC(=O)c1cccc(NC(=O)c2ccc(Br)cc2)c1)c1ccc(Br)cc1 | -6.94%
COc1cccc(C(=O)Nc2ccc3nc(N4CCC(C)CC4)cc(C)c3c2)c1 | 9.86%
CCOC(=O)N1CCC(NCCNC(=O)c2ccc(F)c(F)c2)CC1 | active: 59.1%
COc1cccc(C(=O)Nc2ccccc2-c2nnc(-c3cc(OC)ccc3Br)o2)c1 | -5.5%
COc1ccc(C2=C(C)C(=O)N(Cc3ccc(C(=O)Nc4cc(C)ccc4C)cc3)S2(=O)=O)cc1 | 9.64%
Cn1cnc(S(=O)(=O)N2CCC(C(=O)NCc3ccc(F)cc3)CC2)c1 | -9.33%
O=C(Cc1ccc(Cl)cc1)NCC(c1cccs1)S(=O)(=O)c1ccc(F)cc1 (stereo not given) | -17.2%
Cc1cccc(N2CCN(CCCNC(=O)c3nnc(Cc4c(F)cccc4Cl)o3)CC2C)c1 (stereo not given) | -23.2%
O=C(Cn1c(=O)n(-c2ccc(Cl)cc2)c(=O)c2oc3ccccc3c21)Nc1ccccc1 | 2.78%
CC1CCN(c2ncnc3c2nnn3C)CC1 | -6.81%
O=C(c1ccco1)N1CCN(c2nc3c(Cl)cccc3s2)CC1 | 0.87%
CCN(CC)S(=O)(=O)c1nnc(NC(=O)c2ccc(C(C)C)cc2)s1 | 14.9%
CCOc1ccc(C(=O)Nc2cc(-c3cn4cccnc4n3)ccc2C)cc1OCC | 13.3%
Cc1cc(C)cc(NC(=O)C2CCC(CNS(=O)(=O)c3ccc4c(c3)C(C)(C)C(=O)N4C)CC2)c1 (stereo not given) | -14.8%
CCn1cc(C(=O)NCCc2ccc(C)cc2)c(=O)c2cc(S(=O)(=O)N3CCCCC3)ccc21 | 23.3%
COc1ccc(CCNC(=O)c2c(C)oc3ncn(CC(C)C)c(=O)c23)cc1OC | -3.28%
O=C(c1ccc(F)cc1)C1CCN(C(=O)c2ccc(F)cc2)CC1 | active: 41%
COCC(=O)Nc1ccc(OC)c(Cl)c1 | active: 36.6%
COc1cccc(CNC(=O)CN2C(=O)COc3ccc(S(=O)(=O)Nc4ccccc4)cc32)c1 | -2.11%
O=C(CCS(=O)(=O)c1cc(Br)cc2c1N(C(=O)C1CC1)CC2)Nc1ccc(C(F)(F)F)cc1 | -2.52%

Structure (SMILES) | inhibition
CN(Cc1ccccc1)C(=O)C1CCN(S(=O)(=O)c2ccc3nc4c(c(C(=O)O)c3c2)CCCC4)CC1 | 1.7%
COc1ccc(CNC(=O)C2CCN(C(=O)N3CC(C)Oc4ccc(C)cc43)CC2)cc1 (stereo not given) | 13.2%
Cn1c(=O)c2sccc2n2c(CCC(=O)NCc3ccccc3Cl)nnc12 | -16.4%
O=C(Nc1ccc(Cl)cc1)c1cc(S(=O)(=O)N2CCc3ccccc32)ccc1F | 15.3%
Cc1ccc(S(=O)(=O)Nc2nc3n(n2)C(c2ccccc2Cl)C=C(c2ccccc2)N3)cc1 (stereo not given) | 22%
COc1ccc(-c2nc(Cn3c(SCc4ccccc4F)nc4ccncc43)c(C)o2)cc1OC | -10.7%
Cc1cccc(NC(=O)c2oc3ccccc3c2NC(=O)c2cc(=O)c3cc(Cl)ccc3o2)c1 | 16.1%
Cn1c(SCC(=O)c2ccc(F)cc2)nnc1-c1ccccc1Br | -13.1%
COc1ccc(C)cc1NC(=O)CSc1ccc(-c2ccccn2)nn1 | -6.52%
COc1ccccc1C(=O)Nc1c(C(=O)N(C)c2ccccc2)sc2nc(C)cc(C)c12 | 8.92%
COc1ccc(CNC(=O)c2ccc3c(c2)CCN3S(=O)(=O)c2ccc(C)cc2)cc1 | -8.18%
Cc1ccc(NC(=O)C2CCCN2S(=O)(=O)c2cccc3nsnc23)cc1Cl (stereo not given) | 27.5%
O=[N+]([O-])c1ccc(N2CCCC2)cc1NC(c1ccccc1)c1ccccc1 | active: 30%
CCN1CCN(C(=O)Cn2nc(C)n3c(cc4c(OC)cccc43)c2=O)CC1 | active: 35.3%
Cc1ccccc1C(=O)N1CCN(CCc2ccccn2)CC1 | 7.27%
CC1CCN(S(=O)(=O)c2ccc3c(c2)CCN3C(=O)Nc2ccc(Br)cc2)CC1 | 6.34%
Cc1c(C(=O)Nc2ccc(C(C)C)cc2)sc2nc[nH]c(=O)c12 | -19.5%
CC1CCN(S(=O)(=O)c2ccc3c(c2)N(CC(=O)NC(C)C)C(=O)CO3)CC1 | 5.09%
COc1ccc(CC(=O)Nc2cc(S(=O)(=O)N3CCCCC3)ccc2C)cc1 | active: 30.7%
COc1cccc(CNC(=O)CSc2ncc(S(=O)(=O)c3ccc(Br)cc3)c(=O)[nH]2)c1 | -3.22%
Cc1ccc(-c2nnc(Nc3ccc(Cl)c(Cl)c3)c3ccccc23)cc1S(=O)(=O)NCCO | 4.51%
Cc1ccccc1-c1noc(-c2cccnc2N(C)Cc2ccc(Cl)cc2)n1 | 16.3%
COc1ccc(CCNC(=O)CSc2nnnn2-c2cccc(C(C)=O)c2)cc1OC | -7.59%
Fc1ccc(Cc2cn3cc(-c4ccccc4)nc3s2)cc1 | -15.2%

Structure (SMILES) | inhibition
CCOC(=O)c1ccc(NC(=O)c2csnn2)cc1 | 6.32%
CCOC(=O)c1cccc(NC(=O)CCC(=O)N2CC(C)Oc3ccc(C)cc32)c1 (stereo not given) | -14.2%
Cc1ccc(CNC(=O)c2c(O)nc3c(C)cccn3c2=O)cc1 | -3.91%
CCN(CC)CCCNC(=O)c1ccc2c(c1)NC(=O)C(CS(=O)(=O)Cc1cccc(Br)c1)N2 (stereo not given) | 7.43%
COc1ccc(Br)cc1CNC(=O)c1nn(-c2ccc(C)cc2)c(=O)c2c1c1ccccc1n2C | 19.9%
CN(C)c1ccc(CNS(=O)(=O)c2ccc3[nH]c4c(c3c2)CCCCC4)cc1 | 4.2%
C=Cc1ccc(CN2C(=O)c3ccccc3Sc3ccc(C(=O)OCc4ccco4)cc32)cc1 | 5.57%
O=C(Nc1ccccc1)N(Cc1ccc(F)cc1)c1ccccn1 | 21.3%
Cc1cc(O)c(C(c2ccccc2)N2CCN(C)CC2)c(=O)n1Cc1ccco1 (stereo not given) | 9.58%
COc1ccc(-c2noc(CN(C(C)C)S(=O)(=O)c3ccc(Br)cc3)n2)cc1 | -3.82%
CN1CCN(c2ccccc2/C=C2/C(=O)Nc3ccccc32)CC1 | active: 37.2%
Cc1cccc(NC2=CC(c3cccc(Br)c3)N(c3cccc(C)c3)C2=O)c1 (stereo not given) | -4.26%
CCOC(=O)c1c(C)[nH]c(C)c1S(=O)(=O)NCC(=O)N1CCN(c2cccc(C)c2)C(C)C1 (stereo not given) | -9.36%
CCc1ccc(CCC(=O)Nc2ccc(Cl)cc2)o1 | active: 41.5%
O=C(Cn1c(=O)nc(-c2ccccc2)c2ccccc21)NCc1ccc(F)cc1 | -4.85%
C#CCNC(=O)C1=C[C@@H](c2ccc(C#C)cc2)[C@H](CCCO)[C@@H](OCC)O1 | active: 31.9%
CCc1ccc(NCc2cc3cc(OC)c(OC)cc3n(CC(=O)Nc3cc(C)ccc3C)c2=O)cc1 | -3.94%
CN(C(=O)CN1C(=O)CCSc2ccc(S(=O)(=O)N3CCCC3)cc21)c1ccccc1 | -9.1%
CCC(C)OC(=O)/C(C#N)=C\c1ccc(-c2cccc(C(F)(F)F)c2)o1 (stereo not given) | 12.9%
COc1ccc(C(C)n2c(C)c3c(C)nnc(C)c3c2C)cc1 (stereo not given) | -4.52%
Cc1cccc(C)c1Nc1nc2ccccc2nc1NS(=O)(=O)c1ccccc1 | 10.9%
COc1ccc(S(=O)(=O)N(CC(=O)NCc2ccccc2)c2ccc(C)cc2)cc1OC | 10.4%
O=S(=O)(c1ccc2c(c1)CCN2)N1CCCCCC1 | -5.44%
O=C(CCN1CCc2ccccc2C1)Nc1ccccc1 | active: 57.3%

Structure (SMILES) | inhibition
Cc1ccc2c(c1)c1c(c(=O)n(Cc3ccccc3)c(=O)n1CC(=O)NCc1ccccc1Cl)n2C | 6.23%
CSCCC(NC(=O)c1ccc(Cl)cc1Cl)C(=O)NNC(=O)c1csc(N2CCOCC2)n1 (stereo not given) | active: 33.7%
CCOC(=O)C(Cc1c[nH]c2ccccc12)NC(=O)COc1ccc(Cl)c(C)c1 (stereo not given) | 1.14%
COc1cccc(CNC(=O)C2CCC(CNS(=O)(=O)c3ccc(Br)s3)CC2)c1 (stereo not given) | -0.65%
CCOc1nc(NC(=O)NS(=O)(=O)Oc2ccccc2)nc(-c2ccccc2)n1 | 1.26%
CCc1ccc(Sc2cc(C(=O)NC(C)CC)c3ccccc3n2)cc1 (stereo not given) | 19.5%
COc1cccc(NC(=O)c2cnn(-c3ccccc3)c2-n2cccc2)c1 | 10.8%
COc1ccccc1-n1c(/C=C/c2c(C)n(C)c3ccccc23)nc2ccccc2c1=O | -0.84%
COc1ccc(-c2noc(CSc3nnc(-c4ccncc4)n3-c3ccc(C)cc3)n2)cc1 | -22.5%
O=C(CCN1CCN(c2ccccc2F)CC1)Nc1ccc(F)cc1 | active: 87.5%
N#Cc1c[nH]n2c(NC3CCCC3)c(-c3cccc(Cl)c3)nc12 | 5.9%
Cc1ccc(N(CC(=O)Nc2ccc(C)c(F)c2)S(=O)(=O)c2c(C)n[nH]c2C)cc1 | -1.64%
CCCCOc1ccc(CN2CCCCC2)cc1 | active: 52.1%
CCOc1cc(C(=O)N2CCc3c([nH]c4ccccc34)C2c2ccccc2)cc(OCC)c1OCC (stereo not given) | 9.46%
COc1ccc(C)cc1NC(=O)Cn1c(=O)ccc2cc(S(=O)(=O)N3CCCC3)ccc21 | 18.2%
CCOC(=O)c1sc2ncn(CC(=O)Nc3ccc(C)cc3Br)c(=O)c2c1C | 1.57%
COc1ccccc1CNc1ccc(-c2nc(-c3ccncc3)no2)cc1[N+](=O)[O-] | -14.8%
CCOc1ccc(NC(=O)CSC2=Nc3ccccc3C3=NC(CC(=O)NCc4ccco4)C(=O)N23)cc1 (stereo not given) | 17.9%
COc1ccc(CNC(=O)CC(c2ccc(OC)c(OC)c2)N2Cc3ccccc3C2=O)cc1 (stereo not given) | 9.03%
Cc1cc2ccccc2n1CCNC(=O)c1cccc(Cl)c1 | 4.08%
CC(C)c1ccc(NC(=O)c2cc(S(=O)(=O)NCc3ccccc3Cl)ccc2F)cc1 | 0.331%
CCOC(=O)c1c(C)[nH]c(C)c1S(=O)(=O)N1CCCC(C(=O)Nc2ccc(F)cc2F)C1 (stereo not given) | -0.811%
COc1cc(C2CC(=O)N(c3ccccc3)C3=C2C(=O)OC3)cc(OC)c1OC (stereo not given) | 21.7%
